# About 5,800 (2.1%) of roughly 270,000 compounds were called active. This list was built around the results that the source calls inconclusive (neither active nor inactive); the mix of calls is not that of the screen. Calls follow the shape of the dose curve; as a rule, active = well fitted inhibition curve with a large enough effect; inconclusive = small, poorly fitted or top-dose-only effect; inactive = flat fitted curve, though single readings scatter. Potencies of inconclusive entries are doubtful fits and often do not repeat.
# Target: Microtubule-associated protein tau (Homo sapiens) (UniProt P10636)
# Test: qHTS for Inhibitors of Tau Fibril Formation, Thioflavin T Binding; also: nearly all actives have a fitted effect of over 55% in size
# Conditions: recombinant tau K18 P301L, heparin-induced fibrillization, ThT fluorescence; series mostly up to 57.4 µM; activity, negative = inhibition: at the top concentration
# In short: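 Using a mix of unlabeled (15 uM) and Alexa 594-labeled (0.24 uM) tau K18 P301L, heparin-triggered fibrillization over 6 hr at 37 C was scored by ThT fluorescence.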
# % is scaled to controls: 0 for no effect and ±100 for the full control effect; potency is read from the fitted curve at half-maximal effect; tags tell the direction and shape of the fitted curve.
# UniProt P10636, sequence (P10636 whole entry, looked up): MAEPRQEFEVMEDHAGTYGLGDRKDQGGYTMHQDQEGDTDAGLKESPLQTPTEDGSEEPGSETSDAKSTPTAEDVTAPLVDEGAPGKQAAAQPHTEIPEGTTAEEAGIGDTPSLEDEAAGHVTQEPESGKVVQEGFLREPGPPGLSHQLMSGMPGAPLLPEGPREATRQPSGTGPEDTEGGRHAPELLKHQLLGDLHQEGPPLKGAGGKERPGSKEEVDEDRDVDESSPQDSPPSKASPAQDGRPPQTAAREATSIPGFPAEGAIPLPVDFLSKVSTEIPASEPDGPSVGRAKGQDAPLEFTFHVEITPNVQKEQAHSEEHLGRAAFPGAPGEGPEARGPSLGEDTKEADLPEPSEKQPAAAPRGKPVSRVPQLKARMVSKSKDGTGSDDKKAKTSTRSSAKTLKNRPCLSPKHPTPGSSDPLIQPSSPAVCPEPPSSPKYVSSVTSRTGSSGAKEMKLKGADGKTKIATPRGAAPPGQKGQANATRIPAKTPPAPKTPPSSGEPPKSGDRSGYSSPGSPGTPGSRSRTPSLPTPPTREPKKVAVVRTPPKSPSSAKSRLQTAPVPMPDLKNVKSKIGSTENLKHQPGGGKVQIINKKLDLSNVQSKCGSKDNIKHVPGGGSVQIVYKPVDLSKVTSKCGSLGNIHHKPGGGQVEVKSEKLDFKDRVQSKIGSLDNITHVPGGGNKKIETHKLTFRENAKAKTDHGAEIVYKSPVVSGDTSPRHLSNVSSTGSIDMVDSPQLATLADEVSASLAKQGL
Structure (SMILES),Potency,"activity, negative = inhibition"
COc1cc(C)ccc1OCCOCCOc1ccc(C)cc1[N+](=O)[O-],"inconclusive: 12.6 µM [inhibitor, partial curve]",
CC(C)c1nc(SCC(=O)c2ccc(F)cc2)c2ccccc2n1,"inconclusive: 22.4 µM [inhibitor, single point]",
COc1ccc(N2CCN(CCCNS(=O)(=O)c3c(C)noc3/C=C/N(C)C)CC2)cc1,"inconclusive: 11.2 µM [inhibitor, partial curve]",
N#C/C(=C\c1ccco1)c1nc2ccccc2s1,"inconclusive: 3.55 µM [inhibitor, partial curve]",
NNC(=O)c1ccc(-c2ccccc2F)cc1,"inconclusive: 14.1 µM [inhibitor, partial curve]",
CCCn1c(CC)nc([N+](=O)[O-])c1S(=O)(=O)c1ccccc1,"inconclusive: 4.47 µM [inhibitor, partial curve]",
O=S(=O)(Nc1ccc(N2CCCCC2)cc1)c1ccccc1F,"inconclusive: 15.8 µM [inhibitor, partial curve]",
CCc1ccccc1N(C)S(=O)(=O)c1ccc2c(c1)C(C)(C)C(=O)N2C,"inconclusive: 28.2 µM [inhibitor, single point]",
Cc1nnc(NC(=O)CCSCCC(=O)Nc2nnc(C)s2)s1,"inconclusive: 28.2 µM [inhibitor, single point]",
CC(=O)Nc1ccc(NC(=O)CSc2ccc(-c3ccco3)nn2)cc1,"inconclusive: 20 µM [inhibitor, partial curve]",
CCOC(=O)c1c(C)sc(-c2c(-c3cccc(Cl)c3)[nH]c3c2c(=O)n(C)c(=O)n3C)c1O,,inactive: -17.6%
CC(=O)/C=C\c1cn(-c2ncc(C(F)(F)F)cc2Cl)c2ccccc12,"inconclusive: 35.5 µM [inhibitor, partial curve]",
O=C(Nc1cc2c(oc1=O)CCCC2=O)c1cccc(Cl)c1,,inactive: -16.7%
O=C(CCSCCC(=O)Nc1c(F)c(F)c(F)c(F)c1F)Nc1c(F)c(F)c(F)c(F)c1F,,inactive: 11.5%
O=C(CCCC(=O)N1CCN(c2ccccc2F)CC1)N1CCN(c2ccccc2F)CC1,"inconclusive: 0.631 µM [inhibitor, partial curve, poor fit]",
O=C(O)CN1CCCCC1,,inactive: 7.45%
O=C(c1ccc(S(=O)(=O)c2cccc(Cl)c2)c([N+](=O)[O-])c1)N1CCN(c2ccccn2)CC1,"inconclusive: 14.1 µM [inhibitor, partial curve]",
COC(=O)c1ccc(C(/C=C/[C@@H](C)C(=O)N(C)C)NC(=O)OCc2ccccc2)cc1 (stereo partly specified),,inactive: 1.38%
COc1cccc(/C=N/Nc2cc(Cl)nc(C)n2)c1O,"inconclusive: 8.91 µM [inhibitor, partial curve]",
CC(=O)N(C)c1ccc(N=Nc2c(C)[nH]n(C(N)=S)c2=O)cc1,"inconclusive: 5.62 µM [inhibitor, partial curve]",
COCCn1c(SCC(=O)c2c(-c3ccccc3)n(C)c3ccccc23)nnc1-c1ccncc1,,inactive: -13.7%
Cc1cc(C)c(S(=O)(=O)NCCc2csc3nc(-c4ccc(Cl)cc4)nn23)c(C)c1,,inactive: -5.78%
CCOC(=O)c1sc(NC(=O)CCN2CCC(C)CC2)c(C(=O)OCC)c1C,,inactive: 1.38%
CC(=O)c1ccc(N2CCN(C(=O)C3CCN(S(=O)(=O)c4c(C)noc4/C=C/c4ccccc4F)CC3)CC2)cc1,,inactive: -5.8%

Structure (SMILES),Potency,"activity, negative = inhibition"
COc1ccc(C)cc1-n1nnnc1SC/C(O)=C(\C#N)c1nc2ccccc2[nH]1,"inconclusive: 20 µM [inhibitor, partial curve]",
CCN1CCN(Cc2ccc(NC(=O)c3cc(NC(=O)c4cnn(-c5ccccc5)c4N)cc(OC)c3)cc2C(F)(F)F)CC1,,inactive: 6.26%
Cc1nc2ccccn2c1C(=O)N/N=C/c1ccc(CNC(=O)C(=O)Nc2ccccc2)o1,"inconclusive: 39.8 µM [inhibitor, single point]",
CSc1c(-c2ccccn2)c(N)nn1C(=O)C1CCC1,"inconclusive: 0.794 µM [inhibitor, full curve, poor fit]",
O=C(CSc1nnc2scc(-c3ccccc3)n12)Nc1nsc(-c2ccccc2)n1,,inactive: -10.3%
Cc1ccc(C2CCN(C(=O)Nc3ccc(C)c(C)c3)C2)cc1 (stereo unspecified),"inconclusive: 3.16 µM [inhibitor, full curve]",
CC(C)Oc1ccc(CNC(=O)Cn2c(-c3cccs3)cc3ccccc32)cc1,,inactive: 7.42%
Cc1c(/C=N/NC(=O)c2cc(C(C)(C)C)[nH]n2)c2ccccc2n1C,"inconclusive: 5.01 µM [inhibitor, partial curve]",
Cc1ccc(C(=O)Nc2ccc3[nH]c(=O)c(=O)[nH]c3c2)cc1,"inconclusive: 17.8 µM [inhibitor, partial curve]",
COc1cc(NC(=O)CC2C(=O)N(c3cccc(C)c3)C(=O)N2Cc2cccs2)cc(OC)c1 (stereo unspecified),,inactive: 1.34%
CCOc1ccc(NC(=O)CN2CCN(C3c4ccccc4-c4ccccc43)CC2)cc1,"inconclusive: 14.1 µM [inhibitor, single point]",
CC(=O)NN1C(=O)/C(=C\c2ccc(C)cc2)SC1=S,"inconclusive: 14.1 µM [inhibitor, partial curve]",
CC1CCN(c2c(NCc3ccc(C(=O)N(C)C4CCCCC4)cc3)c(=O)c2=O)CC1,,inactive: -10.5%
CN(C)C(CNC(=S)Nc1ccc(F)cc1)c1cccnc1 (stereo unspecified),,inactive: 2.23%
N#C/C(=C\c1ccc(C(=O)O)cc1)c1nc2sc3c(c2c(=O)[nH]1)CCCC3,active: 14.1 µM,
COC(=O)CCNC(=O)c1ccc2[nH]c(C)c(C)c2c1,"inconclusive: 28.2 µM [inhibitor, single point]",
Cc1cc(NS(=O)(=O)c2ccc(NC(=S)NC(=O)c3ccc(C(C)(C)C)cc3)cc2)no1,"inconclusive: 39.8 µM [inhibitor, single point]",
Cc1ccc(C)c(CN2C(=O)c3ccccc3S(=O)c3ccc(C(=O)NCCC4=CCCCC4)cc32)c1 (stereo unspecified),,inactive: -19.2%
COc1ccc(CCC(=O)NCCc2csc(-c3cccc(C)c3)n2)cc1,"inconclusive: 20 µM [inhibitor, partial curve]",
Cc1ccccc1NS(=O)(=O)c1nnc(NC(=O)c2ccco2)s1,"inconclusive: 1.26 µM [inhibitor, full curve]",
O=C1/C(=N\S(=O)(=O)c2cccs2)C([n+]2ccccc2)=C([O-])c2ccccc21,"inconclusive: 15.8 µM [inhibitor, partial curve]",
CCc1c(C)[nH]n(-c2nc(-c3cccc([N+](=O)[O-])c3)cs2)c1=O,"inconclusive: 12.6 µM [inhibitor, partial curve]",
Oc1c(Cl)cc(Cl)cc1CNn1cnnc1,,inactive: 7.98%
Clc1ccc(-c2csc(N3CCC(c4ccccc4)C3)n2)cc1 (stereo unspecified),"inconclusive: 4.47 µM [inhibitor, partial curve]",

Structure (SMILES),Potency,"activity, negative = inhibition"
Cc1ccc(S(=O)(=O)N(c2nc(NC(C)C)nc(NC(C)C)n2)n2cnnc2)cc1,,inactive: -1.88%
Cc1ccc(Oc2cc(NC(=O)CCCn3nc([N+](=O)[O-])c(Cl)c3C)cc([N+](=O)[O-])c2)cc1,,inactive: -8.02%
Cc1cc(S(=O)(=O)NCc2ccccc2)ccc1OCC(=O)NCC1CCCO1 (stereo unspecified),,inactive: -1.44%
COc1ccc(CCNc2oc(COc3ccccc3F)nc2C#N)cc1OC,"inconclusive: 12.6 µM [inhibitor, partial curve]",
CC(=O)c1ccc(N=Nc2ccc(C)cc2)cc1,active: 4.47 µM,
COc1ccc(/C=C/C(=O)c2ccc(Cl)s2)cc1O,active: 7.94 µM,
C[C@H]1[C@H](C)CC[C@]2(C(=O)O)CC[C@]3(C)C(=CCC4[C@@]5(C)C[C@@H](O)[C@H](O)[C@@](C)(CO)[C@@H]5CC[C@]43C)[C@H]12 (stereo partly specified),"inconclusive: 39.8 µM [inhibitor, single point]",
CC(C)c1ccc(NC(=S)NCc2ccc3c(c2)OCO3)cc1,,inactive: -12.3%
CCOc1ccc2cc(-c3nnc(Nc4ccc(C)cc4)s3)c(=O)oc2c1,"inconclusive: 2 µM [inhibitor, full curve]",
CCCC(=O)c1ccc(N2CCCCCC2)c(F)c1,"inconclusive: 28.2 µM [inhibitor, single point]",
Cc1cc(C)cc(-c2nnc(SCC(=O)c3ccc4c(c3)OCCO4)o2)c1,,inactive: -9.67%
O=C(NNc1ncnc2c1cnn2-c1ccc(F)cc1)c1cccs1,,inactive: -9.61%
CC1(C)C(=O)C2(CCCCC2)C(=O)OC1c1cccn1-c1ccc([N+](=O)[O-])cc1 (stereo unspecified),,inactive: -8.25%
Cc1ccc(C)c(OCCN2C(=O)NC3(CCc4ccccc4C3)C2=O)c1 (stereo unspecified),"inconclusive: 25.1 µM [inhibitor, single point]",
COc1ccc(NCc2ccc([N+](=O)[O-])s2)c(OC)c1,"inconclusive: 25.1 µM [inhibitor, partial curve]",
Cc1cccc(NC(=O)CSc2nc3ccccc3o2)c1,,inactive: -13.7%
O=[N+]([O-])c1ccc(-c2csc(N3CCc4ccccc4C3)n2)cc1,active: 5.01 µM,
COc1ccc(C=C2C(=O)c3ccccc3C2=O)cc1O,active: 8.91 µM,
O=C1[C@H]2[C@@H](C(=O)N1c1cc(Cl)cc(Cl)c1)[C@]1(C(=O)Nc3ccccc31)N1CCC[C@@H]21,"inconclusive: 28.2 µM [inhibitor, single point]",
COc1cc(NC(=O)CC(c2cccs2)N2Cc3ccccc3C2=O)cc(OC)c1OC (stereo unspecified),,inactive: -10.7%
Cc1ccc(C(C[N+](=O)[O-])Sc2ccc(N)cc2)cc1 (stereo unspecified),active: 17.8 µM,
CCCNC(=O)c1cnc2c(-c3ccc(OCC)c(OCC)c3)c(C)nn2c1-c1ccccc1,"inconclusive: 39.8 µM [inhibitor, single point]",
C=C1CN(Cc2ccccc2)S(=O)(=O)c2ccccc21,"inconclusive: 7.08 µM [activator, single point]",

# From PubChem BioAssay AID1460 (National Center for Advancing Translational Sciences (NCATS), 2008)
